This is an account of results in a collection of fitness landscapes (doi:10.1016/j.celrep.2020.107928).

B1: Caulobacter ParB omega fusion; a variant is named by its letters at X, in order, B8GW30 (parent)
chain: MESVVVGEPGMSEGRRGLGRGLSALLGEVDAAPAQAPGEQLGGSREAPIEILQRNPDQPRRTFREEDLEDLSNSIREKGVLQPILVRPSPDTAGEYQIVAGERAWRAAQRAGLKTVPIMVRELDDLAVLEIGIIENVQRADLNVLEEALSYKVLMEKFERTQENIAQTIGKSXSHVANXMRLLXLPDEVQSYLVSGELTAXHARAIAAAADPVALAKQIIEGGLSVRETEALARKAPNLSAGKSKGGRPPRVKDTDTQALESDLSSVLGLDVSIDHRGSTGTLTITYATLEQLDDLCNRLTRGI

Over roughly 81,000 sequences, “one-hybrid fitness for binding NBS DNA” has its median near -0.1; the highest 2% begin near 0.36. The list shows a part of the results.

In the assay the parent is B1. Description: one-hybrid fitness for binding NBS DNA (the Noc-binding site; scaled: cognate 1, non-cognate 0); higher = stronger binding. Conditions: with NBS DNA site. An outline of the steps:
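Values were rescaled so that cognate is 1 and non-cognate is 0. Each is a fitness, the log change in a variant's read ratio to wild type from Illumina reads of plasmids before and after selection, with three replicate libraries pooled and variants under 10 reads dropped. Selection of the Caulobacter ParB libraries, four specificity codons randomised, used E. coli USO with a HIS3 reporter, site 19 bp from the promoter, on M9-minus-histidine with 0.1 mM IPTG and 5 mM 3-AT for 48 hours at 37°C.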
For YDNH, the “one-hybrid fitness for binding NBS DNA” value was at most 0.2.

On to PRDN, for which the “one-hybrid fitness for binding NBS DNA” value is at most 0.2. To NSAR belongs at most 0.2. To KLRL belongs at most 0.2; to TLES, at most 0.2. Take CMVG: the “one-hybrid fitness for binding NBS DNA” value is at most 0.2. For the variant CGTY, the “one-hybrid fitness for binding NBS DNA” value is at most 0.2. Next, VFSV: at most 0.2. In the case of STRF, the “one-hybrid fitness for binding NBS DNA” value is at most 0.2. For GKPG, the “one-hybrid fitness for binding NBS DNA” value is at most 0.2. Take IRNM: the “one-hybrid fitness for binding NBS DNA” value was at most 0.2. For FPEG, the “one-hybrid fitness for binding NBS DNA” value is at most 0.2.

MPGG: the “one-hybrid fitness for binding NBS DNA” value was at most 0.2. For the variant NNPE, the “one-hybrid fitness for binding NBS DNA” value was at most 0.2. Next, SIIT: at most 0.2. To KFST belongs at most 0.2; to TWFV, at most 0.2; to NDHT, at most 0.2. Next, LSEI: at most 0.2.

As to CMKG, the “one-hybrid fitness for binding NBS DNA” value is at most 0.2. Next, NRYF: at most 0.2. To HRYV belongs at most 0.2. Next, VSHE: at most 0.2; YSML: at most 0.2; NRFQ: at most 0.2. As to LVEA, the “one-hybrid fitness for binding NBS DNA” value is at most 0.2. Consider PVCC, for which the “one-hybrid fitness for binding NBS DNA” value was at most 0.2. Regarding TDAG, the “one-hybrid fitness for binding NBS DNA” value was at most 0.2. Next, FVNC: at most 0.2. Next, EAVT: at most 0.2. Next, QYWC: at most 0.2; SSEQ: at most 0.2. Take HSPS: the “one-hybrid fitness for binding NBS DNA” value was at most 0.2. Take TIQS: the “one-hybrid fitness for binding NBS DNA” value is at most 0.2. With KCNC, the “one-hybrid fitness for binding NBS DNA” value is at most 0.2. Next, KVRS: at most 0.2; CTLQ: at most 0.2. On to TYCG, for which the “one-hybrid fitness for binding NBS DNA” value is at most 0.2. To MRVI belongs at most 0.2. Next, EPSL: at most 0.2; IASD: at most 0.2; PSMH: at most 0.2. Next, RDSM: at most 0.2; EMTC: at most 0.2.

On to PLLG, for which the “one-hybrid fitness for binding NBS DNA” value is at most 0.2. Next, INLI: at most 0.2; GGSG: at most 0.2; REWC: at most 0.2. Next, YKQA: at most 0.2. To VVTR belongs at most 0.2; to RCMV, at most 0.2; to MCAL, at most 0.2. For TSYA, the “one-hybrid fitness for binding NBS DNA” value was at most 0.2. Next, YTAG: at most 0.2; TNIG: at most 0.2; RYDP: at most 0.2.

With RYSR, the “one-hybrid fitness for binding NBS DNA” value amounted to 0.452. Next, NLPT: at most 0.2; GANT: at most 0.2; NQPG: at most 0.2. For the variant RTNY, the “one-hybrid fitness for binding NBS DNA” value stood at 0.275.

For the variant IMCR, the “one-hybrid fitness for binding NBS DNA” value was at most 0.2.

For CAVG, the “one-hybrid fitness for binding NBS DNA” value was at most 0.2. Next, NPTA: at most 0.2. Next, TCNL: at most 0.2; VPNV: at most 0.2; RKAV: at most 0.2. Next, DRTD: at most 0.2.

Take HSWT: the “one-hybrid fitness for binding NBS DNA” value was at most 0.2. Next, DRER: at most 0.2. To QDCM belongs at most 0.2. To GAIR belongs at most 0.2; to HMKS, at most 0.2. Turning to PEYE, the “one-hybrid fitness for binding NBS DNA” value was at most 0.2. Next, NVKM: at most 0.2. Next, QDPL: at most 0.2; GEHR: at most 0.2. Next, SLCP: at most 0.2; HITS: at most 0.2; PMNH: at most 0.2. HDAA: the “one-hybrid fitness for binding NBS DNA” value was at most 0.2. As to HRRL, the “one-hybrid fitness for binding NBS DNA” value was at most 0.2. Next, SVSR: at most 0.2; CWTL: at most 0.2. To IFRG belongs at most 0.2; to GGGV, at most 0.2.

In the case of MNTI, the “one-hybrid fitness for binding NBS DNA” value is at most 0.2. To IPSD belongs at most 0.2; to HKTE, at most 0.2; to DKAA, at most 0.2. Next, KCSM: at most 0.2; VEKR: at most 0.2; DDGS: at most 0.2. Next, EDTT: at most 0.2; MKWR: at most 0.2. On to CTDT, for which the “one-hybrid fitness for binding NBS DNA” value is at most 0.2. To CCQW belongs at most 0.2; to FKTT, at most 0.2. To DKQT belongs at most 0.2; to FHKC, at most 0.2; to ACVR, at most 0.2. To MKFW belongs at most 0.2; to APTP, at most 0.2.

With WVSR, the “one-hybrid fitness for binding NBS DNA” value is at most 0.2. Next, TSMP: at most 0.2; SHEG: at most 0.2. Next, QHTT: 0.412; VHER: at most 0.2; SMSE: at most 0.2. Turning to RSVV, the “one-hybrid fitness for binding NBS DNA” value was at most 0.2.

As to IKSD, the “one-hybrid fitness for binding NBS DNA” value was at most 0.2. For EPRS, the “one-hybrid fitness for binding NBS DNA” value was at most 0.2. Next, NTHF: 0.259; LRTW: at most 0.2; RLHI: at most 0.2. Next, SVYP: at most 0.2; RIYS: 0.413; SSPI: at most 0.2. Next, STLN: at most 0.2. Consider YAVL, for which the “one-hybrid fitness for binding NBS DNA” value is at most 0.2.

As for RPAL, the “one-hybrid fitness for binding NBS DNA” value is at most 0.2. As for VWRY, the “one-hybrid fitness for binding NBS DNA” value was at most 0.2.

For KKPI, the “one-hybrid fitness for binding NBS DNA” value is at most 0.2. To RTRP belongs at most 0.2; to TRTD, at most 0.2. Next, VMTG: at most 0.2; CAQE: at most 0.2. Next, IAMM: at most 0.2; KAQG: at most 0.2; QQNP: at most 0.2. As for TYWT, the “one-hybrid fitness for binding NBS DNA” value is at most 0.2.

As for HRFQ, the “one-hybrid fitness for binding NBS DNA” value is at most 0.2. To AGKN belongs at most 0.2; to ILHY, at most 0.2.

As for MFKS, the “one-hybrid fitness for binding NBS DNA” value was at most 0.2.

For HLDR, the “one-hybrid fitness for binding NBS DNA” value is at most 0.2. To DQRY belongs at most 0.2. Next, IKSL: at most 0.2; HGLT: at most 0.2; TGAS: at most 0.2. With FIFL, the “one-hybrid fitness for binding NBS DNA” value was at most 0.2. Take RVWP: the “one-hybrid fitness for binding NBS DNA” value is at most 0.2. To QDCL belongs at most 0.2; to PGAT, at most 0.2; to AQGR, at most 0.2. Next, QFNE: at most 0.2. VICR: the “one-hybrid fitness for binding NBS DNA” value was at most 0.2. For DTIG, the “one-hybrid fitness for binding NBS DNA” value is at most 0.2. To HTSE belongs at most 0.2; to AWKG, at most 0.2; to AQGA, at most 0.2. To GGMS belongs at most 0.2. To REMC belongs at most 0.2; to FPNS, at most 0.2.

Take WPPN: the “one-hybrid fitness for binding NBS DNA” value is at most 0.2. To DNHG belongs at most 0.2. Next, TIDY: at most 0.2; IWTT: at most 0.2. To NIHV belongs at most 0.2; to NKDV, at most 0.2. Consider KIFG, for which the “one-hybrid fitness for binding NBS DNA” value was at most 0.2. In the case of WLLR, the “one-hybrid fitness for binding NBS DNA” value is at most 0.2. Next, VTSQ: at most 0.2; ITTA: at most 0.2.

In the case of GNTV, the “one-hybrid fitness for binding NBS DNA” value is at most 0.2. Next, TQCG: at most 0.2. For WCRS, the “one-hybrid fitness for binding NBS DNA” value is at most 0.2. Next, TELD: at most 0.2; QNSN: at most 0.2; YPCS: at most 0.2. Next, SYQF: at most 0.2; SSNL: at most 0.2. Next, QTQH: 0.346.

Consider DDGG, for which the “one-hybrid fitness for binding NBS DNA” value was at most 0.2.

For the variant RPKN, the “one-hybrid fitness for binding NBS DNA” value was at most 0.2. To AAAE belongs at most 0.2. In the case of IARV, the “one-hybrid fitness for binding NBS DNA” value is at most 0.2. To NFCC belongs at most 0.2; to YLCE, at most 0.2. To PSCG belongs at most 0.2. To LITR belongs at most 0.2; to KSGL, at most 0.2; to PPAS, at most 0.2.

For MNSL, the “one-hybrid fitness for binding NBS DNA” value is at most 0.2. Next, PPML: at most 0.2. To EVLS belongs at most 0.2; to NCNL, at most 0.2; to RKSA, 0.284.

Take CHVG: the “one-hybrid fitness for binding NBS DNA” value is at most 0.2.

With LDLK, the “one-hybrid fitness for binding NBS DNA” value was at most 0.2. In the case of DMKR, the “one-hybrid fitness for binding NBS DNA” value is at most 0.2.

For the variant SKMS, the “one-hybrid fitness for binding NBS DNA” value was at most 0.2. Next, EAPH: at most 0.2; CPLY: at most 0.2; SWVN: at most 0.2.
